According to the antibiotic and cytotoxicity screens of Wong et al. (2023):
Some of the results follow.

Experiments:
HSkMC = human skeletal muscle cells; assay: cytotoxicity call (relative viability < 0.9); settings: 10 µM
HepG2 = assay: cytotoxicity call (relative viability < 0.9); settings: 10 µM
S. aureus RN4220 = assay: growth inhibition call (relative growth <= 0.2); settings: 50 µM

| SMILES | cytotoxicity call (HSkMC) | cytotoxicity call (HepG2) | growth inhibition call (S. aureus RN4220) |
| --- | --- | --- | --- |
| COC(=O)c1c(CC[C@@H](CO)NC(=O)N[C@@H](Cc2ccccc2)Cn2cc(-c3ccccc3)nn2)oc(C(=O)N2CCOCC2)c1C(=O)OC | inactive | inactive | inactive |
| C[C@H]1CN([C@@H](C)CO)C(=O)c2cccc(NC(=O)c3ccncc3)c2O[C@@H]1CN(C)S(=O)(=O)c1ccccc1 | inactive | inactive | inactive |
| CN1CCN(C(=O)C[C@@H]2CC[C@@H]3[C@H](COC[C@@H](O)CN3S(=O)(=O)c3cccc(F)c3)O2)CC1 | inactive | inactive | inactive |
| C[C@@H]1CCCCO[C@@H](CN(C)C(=O)Nc2ccc(C(F)(F)F)cc2)[C@@H](C)CN([C@@H](C)CO)C(=O)c2cc(N(C)C)ccc2O1 | inactive | inactive | inactive |
| O=C(C[C@H]1CC[C@H]2[C@@H](COC[C@@H](O)CN2C(=O)Nc2ccc3c(c2)OCO3)O1)N1CCN(c2ccccc2)CC1 | inactive | inactive | inactive |
| C[C@@H]1[C@@H](O)[C@@H](N(C)C)C[C@H]2COC[C@@H]21 | inactive | inactive | inactive |
| Cc1ccc(-c2ccc3c(c2)O[C@@H](CN(C)Cc2cncnc2)[C@H](C)CN([C@H](C)CO)S3(=O)=O)cc1 | inactive | inactive | inactive |
| C[C@@H]1CN([C@H](C)CO)C(=O)c2cc(NC(=O)c3ccccc3)ccc2O[C@@H](C)CCCCO[C@@H]1CN(C)S(=O)(=O)c1ccc(F)cc1 | inactive | inactive | inactive |
| CCCCCCCCCCCCCCCC(=O)OCC(O)C1OC(=O)C(O)=C1O (stereo unspecified) | inactive | inactive | inactive |
| CN1C(=O)C[C@@H]2[C@@H]1CCN2C(=O)c1ccc[nH]1 | inactive | inactive | inactive |
| O=c1[nH]/c(=C/c2ccco2)c(=O)[nH]/c1=C\c1ccco1 | inactive | inactive | inactive |
| C[C@@H]1CCCCO[C@@H](CN(C)Cc2ccccc2)[C@H](C)CN([C@H](C)CO)C(=O)c2cc(NS(=O)(=O)c3ccc(Cl)cc3)ccc2O1 | inactive | inactive | inactive |
| C[C@H](O)C#Cc1ccc2c(c1)O[C@H](CN(C)C)[C@@H](C)CN([C@H](C)CO)S2(=O)=O | inactive | inactive | inactive |
| C[C@@H]1CN([C@H](C)CO)C(=O)c2cc(NS(C)(=O)=O)ccc2O[C@H]1CN(C)S(=O)(=O)c1ccc(Cl)cc1 | inactive | inactive | inactive |
| C[C@H](CO)N1C[C@H](C)[C@@H](CN(C)C(=O)Nc2ccc3c(c2)OCCO3)OCc2cnnn2CCCC1=O | inactive | inactive | inactive |
| C[C@@H]1CN([C@H](C)CO)C(=O)c2cc(C#CC3(O)CCCC3)cnc2O[C@@H]1CN(C)S(C)(=O)=O | inactive | inactive | inactive |
| C[C@@H]1CN([C@H](C)CO)C(=O)c2cc(-c3ccc(F)cc3)cnc2O[C@@H]1CN(C)C(=O)Cc1ccccn1 | inactive | inactive | inactive |
| Cc1ccc(S(=O)(=O)N[C@H]2CC[C@@H](CC(=O)NCc3ccc(Cl)c(Cl)c3)O[C@H]2CO)cc1 | inactive | inactive | inactive |
| C[C@@H]1CN([C@H](C)CO)C(=O)c2cc(NC(=O)Nc3cccc4ccccc34)ccc2O[C@H]1CN(C)Cc1ccc(Cl)c(Cl)c1 | inactive | inactive | inactive |
| C[C@H](CO)N1C[C@H](C)[C@@H](CN(C)Cc2cccc(C(=O)O)c2)Oc2cc(Br)ccc2S1(=O)=O | inactive | inactive | inactive |
| C[C@@H]1CCCCO[C@@H](CN(C)CC2CCCCC2)[C@@H](C)CN([C@H](C)CO)C(=O)c2cc(NC(=O)Cc3ccccc3)ccc2O1 | inactive | inactive | inactive |
| CN(C)CCCNC(=O)C[C@@H]1CC[C@H]2[C@@H](COC[C@H](O)CN2S(=O)(=O)c2ccc(F)cc2)O1 | inactive | inactive | inactive |
| NCCCCCC(O)(P(=O)(O)O)P(=O)(O)O | inactive | inactive | inactive |
| C[C@H]1CN([C@@H](C)CO)C(=O)c2cccc(NC(=O)c3ccc(-c4nccs4)cc3)c2O[C@H]1CN(C)Cc1ccc(-c2ccccc2)cc1 | inactive | inactive | inactive |
| CC(=O)CC(c1ccccc1)c1c(O)c2ccccc2oc1=O (stereo unspecified) | inactive | active | inactive |
| C[C@@H]1CN([C@@H](C)CO)C(=O)c2cc(NS(=O)(=O)c3cccs3)ccc2O[C@H]1CN(C)Cc1ccc(Oc2ccccc2)cc1 | inactive | inactive | inactive |
| C[C@@H]1CN([C@@H](C)CO)C(=O)c2cccc(NC(=O)c3ccncc3)c2O[C@H]1CN(C)Cc1ccc2c(c1)OCO2 | inactive | inactive | inactive |
